The chains are these.
B1: LINE1-mini (parent)
chain: GGCAGAGCUCAACACAGCGUGGCAAAGUGGCUGUGGCUAGACUGCC

The text below walks through data of the RNAGym collection of RNA variant scans (doi:10.7554/elife.90254).

Read counts are not given, so values of variants with three or more changes are uncertain.

This series covers variants of B1. Nature of the series: self-cleavage, relative activity (ratio to wild type); higher = more cleavage; in vitro, sequencing; the parent is a self-cleaving ribozyme.
As to C3G C8A A11U C42U, the self-cleavage amounted to 0.03.

On to C3G A6C C18U G27A U28A G40A, for which the self-cleavage was 0.02.

As for C3G A11C A12G C23G A24G A39G, the self-cleavage was 0.01.

Regarding C3G C8U A12G, the self-cleavage came to 0.05.

As for C3G A4C A6G C13U, the self-cleavage worked out at 0.01.

C3G A6U A16C G27U G35U A41G: the self-cleavage came out at 0.11.

Take C3G A4U U34A C45A: the self-cleavage came out at 0.01.

As for C3G A6C U20G G30C, the self-cleavage came out at 0.03.

Regarding C3G A11C G30U, the self-cleavage is 0.01.

Turning to C3G C10A A16G, the self-cleavage was determined as 0.01.

Consider C3G A11U C18A, for which the self-cleavage worked out at 0.02.

Turning to C3G A4U A26G G33C C46A, the self-cleavage was found to be 0.13.

C3G A16U U20C G29U: the self-cleavage worked out at 0.15.

As for C3G A6G C10G C15U G27A C37A, the self-cleavage came out at 0.01.

Turning to C3G A6U C8A C18G G29U C42A, the self-cleavage worked out at 0.2.

Turning to C3G A4C G27U A41G C42U, the self-cleavage is 0.02.

With C3G C10A A25U G27A G40U, the self-cleavage is 0.02.

Turning to C3G A4C A14G C15A A26U, the self-cleavage stood at 0.31.

Regarding C3G A4G U28C G33C G36C C46U, the self-cleavage turned out to be 0.01.

For the variant C3G A25G C46U, the self-cleavage was determined as 0.11.

As for C3G A12G G33C C42U, the self-cleavage was found to be 0.04.

For the variant C3G A12U G36C G44A, the self-cleavage came out at 0.26.

Take C3G A4C G29U: the self-cleavage stood at 0.14.

Take C3G A11U G22C U43A: the self-cleavage was found to be 0.04.

As to C3G A4G G7A, the self-cleavage was found to be 0.17.

With C3G A6U A24U G44U, the self-cleavage amounted to 0.37.

With C3G A4C U9G U38A C46A, the self-cleavage was determined as 0.09.

As to C3G A14C C18A, the self-cleavage was 0.04.

On to C3G A11C U20A, for which the self-cleavage worked out at 0.02.

Turning to C3G A6U G29C G35U C37G A39U, the self-cleavage turned out to be 0.02.

As for C3G A6G G33U C46G, the self-cleavage turned out to be 0.01.

On to C3G A26U G27U U34G C46U, for which the self-cleavage worked out at 0.09.

Regarding C3G A24G G44A, the self-cleavage was determined as 0.1.

For the variant C3G A4G G5A G33A, the self-cleavage amounted to 0.08.

With C3G A11C G21U C31G C37G, the self-cleavage is 0.01.

Turning to C3G A4C A14U U34G, the self-cleavage amounted to 1.65.

As for C3G A4U G21U G29U U43A, the self-cleavage was found to be 0.04.

For the variant C3G A4G U9G G35A A41C, the self-cleavage came to 0.01.

C3G C8U A11G U43A C46U: the self-cleavage is 0.06.

For C3G A6U C13A C18U G36C, the self-cleavage was determined as 0.27.

On to C3G A14U G21U, for which the self-cleavage is 0.27.

Take C3G C8G C15A U20G: the self-cleavage turned out to be 0.03.

Consider C3G C8U A16C, for which the self-cleavage was determined as 0.04.

Turning to C3G A11C G17A C23U G40C, the self-cleavage is 0.01.

With C3G A39U C46U, the self-cleavage stood at 0.14.

Regarding C3G A24U A39C G44A, the self-cleavage stood at 0.03.

For the variant C3G A24U G35U, the self-cleavage worked out at 0.39.

For C3G A6C A24G A39G, the self-cleavage came out at 0.04.

Take C3G A6U U38A: the self-cleavage came out at 0.28.

In the case of C3G A12C G19A G22C C45A, the self-cleavage was 0.

Regarding C3G A6U C10U A24C, the self-cleavage was determined as 0.03.

C3G C8A C10A C13U C23G: the self-cleavage worked out at 0.03.

Consider C3G A14C C15U A24C G27U G29U G33U, for which the self-cleavage came to 0.09.

As for C3G A4C G21A U28C, the self-cleavage was found to be 0.15.

With C3G A24C G36C, the self-cleavage came out at 0.07.

For the variant C3G C8U A26G U28A G35A, the self-cleavage was determined as 0.05.

In the case of C3G C8A A16G G21U, the self-cleavage worked out at 0.19.

Regarding C3G A39G G44C, the self-cleavage came out at 0.07.

As to C3G A6U A14C G29A, the self-cleavage was determined as 0.03.

With C3G C8G U20A A25C G35C A39G, the self-cleavage was 0.03.

Regarding C3G A4G C8G C18A C37G U43A, the self-cleavage turned out to be 0.01.

For C3G A11G A39U, the self-cleavage worked out at 0.02.

Turning to C3G A11G G36U, the self-cleavage is 0.03.

Consider C3G A14U C15G A24U, for which the self-cleavage was 0.05.

As to C3G A16G G40C C45A C46A, the self-cleavage turned out to be 0.05.

With C3G A14G C31A G35U C42G, the self-cleavage stood at 0.02.

Consider C3G A6C A11C C37U, for which the self-cleavage was determined as 0.01.

On to C3G C8A G19U, for which the self-cleavage was 0.4.

Consider C3G A39C G44C, for which the self-cleavage is 0.11.

For the variant C3A U34G G35U A39U, the self-cleavage worked out at 0.1.

For the variant C3G A12G A41C, the self-cleavage is 0.03.

For C3G A6G U28C G40C, the self-cleavage worked out at 0.03.

Consider C3G A6C U9C, for which the self-cleavage came to 0.01.

In the case of C3G C8A C45U, the self-cleavage came to 0.34.

For the variant C3G A24C C45A C46G, the self-cleavage is 0.02.

For the variant C3G A11U C13A G19A G30C, the self-cleavage turned out to be 0.02.

As to C3G A14G G17U G33U, the self-cleavage amounted to 0.2.

For C3G C8A C15G G33A, the self-cleavage was 0.36.

For the variant C3G C8U G22U, the self-cleavage was determined as 0.88.

For the variant C3G A4U A14G C37U, the self-cleavage stood at 0.44.

As for C3G C10A C13G C31U, the self-cleavage was found to be 0.02.

Turning to C3G A16C A41C, the self-cleavage came out at 0.02.

With C3G A24G G29U, the self-cleavage is 0.08.

Regarding C3A U34G U43A, the self-cleavage was 0.02.

Consider C3G A12C U32C A39G, for which the self-cleavage amounted to 0.02.

Regarding C3G A11U C23A C37G, the self-cleavage was 0.

Take C3G A6G C23U: the self-cleavage turned out to be 0.04.

With C3G A24U G33C G35A C42A, the self-cleavage was 0.03.

Consider C3G A25U A41G, for which the self-cleavage amounted to 0.05.

Turning to C3G A14G U32A C37U, the self-cleavage is 0.05.

On to C3G A26U U34A A41U, for which the self-cleavage stood at 0.03.

For C3G A12G A16C U28A, the self-cleavage is 0.18.

Consider C3G A12G A16G G21U C23A G33U G36U C37U U38A, for which the self-cleavage turned out to be 0.09.

With C3G C8G A16U G19U A25U, the self-cleavage was 0.06.

Turning to C3G A4C G7C G40C, the self-cleavage was found to be 0.05.

Regarding C3G A4U A12G, the self-cleavage was determined as 0.2.

On to C3G A11C G19A C31U G33U C46A, for which the self-cleavage was found to be 0.05.

As to C3G A6U C23U, the self-cleavage is 0.41.

On to C3G A14C C18G C37G, for which the self-cleavage was 0.04.

Consider C3G A12C G40U U43A, for which the self-cleavage was 0.02.

For C3G A16U G17U A26C G40U, the self-cleavage is 0.13.

As for C3G C8A A11U, the self-cleavage is 0.04.

On to C3G C10A A12U, for which the self-cleavage turned out to be 0.1.

Take C3G A6G C23U G29C: the self-cleavage stood at 0.01.

Regarding C3G A6U C37A A41C, the self-cleavage worked out at 0.03.

With C3G A24G U32G, the self-cleavage is 0.06.

Take C3G A11C C13A C37U: the self-cleavage is 0.02.

C3G A11G A14C U32G: the self-cleavage worked out at 0.02.

Turning to C3G C8G A16G C23G U32A G33C G35C, the self-cleavage is 0.01.

With C3G A24G U43A, the self-cleavage came to 0.34.

With C3G A24U U32G C37A G40U, the self-cleavage worked out at 0.31.

For the variant C3G A4G G7C G17A G22U U32G, the self-cleavage is 0.01.

Take C3G C8A C15G U34A: the self-cleavage turned out to be 0.08.

In the case of C3G A16G C42U, the self-cleavage worked out at 0.05.

Regarding C3G A12G U20G C42G C46G, the self-cleavage turned out to be 0.02.

Consider C3G A11C G21C, for which the self-cleavage stood at 0.02.

In the case of C3G A39G G40C, the self-cleavage was determined as 0.07.

For the variant C3G A4G G27A, the self-cleavage amounted to 0.14.

For C3G C10A A24U, the self-cleavage is 0.09.

For the variant C3G A12U C13G G35C, the self-cleavage came out at 0.19.

Consider C3G C8A A14U G17A, for which the self-cleavage was determined as 0.15.

Turning to C3G C8U G33C C45U, the self-cleavage turned out to be 0.13.

Take C3G A6G C13G A16U U20G: the self-cleavage stood at 0.04.

For the variant C3G A12G C13A C45G, the self-cleavage stood at 0.01.

For C3G C8A C18U U32C, the self-cleavage is 0.02.

As for C3G A11C C15U G19A A26C G29A C42A, the self-cleavage came out at 0.02.

For C3G A12G G21C A26G, the self-cleavage was 0.03.

Regarding C3G A6G G35U, the self-cleavage came out at 0.07.

With C3G A4G A24G U32A A41C, the self-cleavage was 0.03.

With C3G A14U A25C G44U, the self-cleavage worked out at 0.06.

Consider C3G A24G G33U, for which the self-cleavage was determined as 0.03.

As for C3G C8U U9G U20G G36C, the self-cleavage was 0.31.

Turning to C3G A25G G36U, the self-cleavage stood at 0.06.

For the variant C3G A16C G33U G35A A41U U43C, the self-cleavage came out at 0.

With C3G C8G C18G C31G, the self-cleavage came to 0.05.

As to C3G A4U G5A C46A, the self-cleavage came out at 0.79.

On to C3G C8A U9C C45A, for which the self-cleavage was determined as 0.6.

On to C3G A4U G5A A6G G7A A26C C37U, for which the self-cleavage turned out to be 0.08.

Turning to C3G A26G U38G G44C, the self-cleavage was 0.01.

As to C3G A6C A16U U32A, the self-cleavage was 0.08.

With C3G A12G G17A G21U C37G, the self-cleavage turned out to be 0.34.

For the variant C3G A16U G21A C37A, the self-cleavage is 0.29.

With C3G A14U U32C G36A, the self-cleavage was 0.04.

C3G A14U G19A: the self-cleavage worked out at 0.23.

Consider C3G A6G U9G G22A, for which the self-cleavage was found to be 0.12.

With C3G A6U G29U A39C U43A C45U, the self-cleavage worked out at 0.01.

For the variant C3G A14U G27U C45A, the self-cleavage came out at 0.05.

Consider C3G A16G C31A U32A C42U C46U, for which the self-cleavage amounted to 0.15.

With C3G A11G C15U G27A, the self-cleavage was found to be 0.09.

Turning to C3G A6G C10A G17C C37U, the self-cleavage came to 0.01.

On to C3G A25C A26U A41G, for which the self-cleavage turned out to be 0.03.

Take C3G A16G G27A G33U: the self-cleavage worked out at 0.08.

For the variant C3G A6G C15A, the self-cleavage was 0.08.

C3G A41C U43A C45U: the self-cleavage worked out at 0.21.

C3G A6G G19A U34A: the self-cleavage came to 0.

For C3G A14U A41G C42A, the self-cleavage is 0.41.

In the case of C3G C8A U32G, the self-cleavage was 0.28.

In the case of C3G A12C C23A G36A, the self-cleavage came out at 1.02.

As to C3G A14G G21C G33U G36C, the self-cleavage stood at 0.05.

Turning to C3G C8G G35A, the self-cleavage amounted to 0.04.

In the case of C3G A25C C42U, the self-cleavage was 0.06.

Consider C3G C8G C23G A41C, for which the self-cleavage is 0.15.

As to C3G A4G A6C C13U C15U U43A, the self-cleavage amounted to 0.09.

As to C3G A6C G44A C45A, the self-cleavage is 0.14.

In the case of C3G A6U C10G A14C U20A G33A A39U, the self-cleavage was determined as 0.

Take C3G A11U C23U C45G: the self-cleavage worked out at 0.01.

C3G A16G G30U C46G: the self-cleavage was 0.01.
